Laboratory results from PubChem BioAssay AID1460 (National Center for Advancing Translational Sciences (NCATS), 2008).
In all, about 270,000 compounds went through this assay and about 5,800 (2.1%) were called active. The inconclusive results got no clear call from the source; some entries with a clear call stand among them for comparison. Calls follow the shape of the dose curve; as a rule, active = well fitted inhibition curve with a large enough effect; inconclusive = small, poorly fitted or top-dose-only effect; inactive = flat fitted curve, though single readings scatter. Potencies beside an inconclusive call are fits to weak or partial responses and may not hold up.

What follows are molecules tested against Microtubule-associated protein tau (Homo sapiens) (UniProt P10636) (assay: qHTS for Inhibitors of Tau Fibril Formation, Thioflavin T Binding). Conditions: recombinant tau K18 P301L (four-repeat tau fragment), heparin-induced fibrillization, ThT fluorescence; series mostly up to 57.4 µM; activity, negative = inhibition: at the top concentration.
Chain of UniProt P10636 (P10636 whole entry, looked up, the tested form may be a part): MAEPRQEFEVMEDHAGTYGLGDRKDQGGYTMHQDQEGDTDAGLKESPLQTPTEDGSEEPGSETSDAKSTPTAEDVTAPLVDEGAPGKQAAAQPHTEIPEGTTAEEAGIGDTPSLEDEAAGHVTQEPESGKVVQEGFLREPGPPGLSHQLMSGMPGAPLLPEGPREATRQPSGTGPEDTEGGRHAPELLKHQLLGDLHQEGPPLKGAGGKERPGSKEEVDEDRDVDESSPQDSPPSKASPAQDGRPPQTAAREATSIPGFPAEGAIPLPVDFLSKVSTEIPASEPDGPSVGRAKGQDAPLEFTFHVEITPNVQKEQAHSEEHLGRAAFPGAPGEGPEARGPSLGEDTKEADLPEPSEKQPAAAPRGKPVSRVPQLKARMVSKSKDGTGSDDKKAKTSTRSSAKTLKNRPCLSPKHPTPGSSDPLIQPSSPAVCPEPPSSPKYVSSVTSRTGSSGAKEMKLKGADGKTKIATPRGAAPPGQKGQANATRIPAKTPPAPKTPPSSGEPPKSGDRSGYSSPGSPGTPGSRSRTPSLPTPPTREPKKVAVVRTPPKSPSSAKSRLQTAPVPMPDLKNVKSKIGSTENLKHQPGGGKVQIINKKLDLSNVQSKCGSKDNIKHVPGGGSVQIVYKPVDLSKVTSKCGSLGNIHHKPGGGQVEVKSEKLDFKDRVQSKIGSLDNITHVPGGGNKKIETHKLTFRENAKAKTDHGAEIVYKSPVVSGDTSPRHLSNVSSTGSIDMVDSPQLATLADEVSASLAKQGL
Outline: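 Recombinant human tau K18 fragment […] carrying P301L, 15 uM unlabeled plus 0.24 uM Alexa 594-labeled, was fibrillized with 20 uM heparin in 100 mM sodium acetate pH 7 for 6 hr at 37 C; 30 uM ThT fluorescence read after 1 hr.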
% is scaled to controls: 0 for no effect and ±100 for the full control effect; potency is read from the fitted curve at half-maximal effect; tags tell the direction and shape of the fitted curve.
Also: nearly all actives have a fitted effect of over 55% in size.

Row | SMILES | Potency | activity, negative = inhibition
1 | Cn1c(COc2ccccc2C(C)(C)C)nc2ccccc21 | inconclusive: 0.708 µM [inhibitor, partial curve, poor fit] | 
2 | NC(=O)C1CCN(C(=O)/C=C/c2ccco2)CC1 | inconclusive: 14.1 µM [inhibitor, single point] | 
3 | O=C(CN1CCCCC1)NCCNc1ccc(C(F)(F)F)cc1[N+](=O)[O-] | inconclusive: 28.2 µM [inhibitor, single point] | 
4 | CCOCCCNC(=O)c1c[nH]c2ccc(S(=O)(=O)Nc3cccc(Cl)c3C)cc2c1=O |  | inactive: 1.43%
5 | Cc1ccc(C2CC(=O)C(C=NCCN3CCN(C(=S)Nc4ccccc4)CC3)=C(O)C2)cc1 (stereo unspecified) | inconclusive: 39.8 µM [inhibitor, single point] | 
6 | COC(=O)C1=C(C)NC(=O)/C1=C\c1ccco1 | inconclusive: 14.1 µM [inhibitor, partial curve] | 
7 | Fc1ccc(Nc2ncnc3c2nc2n3CCCC2)cc1 |  | inactive: -5.36%
8 | O=C(NN1C(=O)/C(=C/C=C/c2ccccc2)SC1=S)c1ccncc1 | active: 11.2 µM | 
9 | CC(=O)Oc1cc2oc(=O)c3c(c2cc1Cl)CCC3 | active: 14.1 µM | 
10 | CC1(C)Cc2nc3oc4c(=S)nc[nH]c4c3cc2CO1 |  | inactive: -5.18%
11 | CC(=O)NC1=C(N(C)C2CCS(=O)(=O)C2)C(=O)c2ccccc2C1=O (stereo unspecified) | active: 25.1 µM | 
12 | COc1ccccc1C(=O)NCC1(N2CCN(C)CC2)CCCCC1 |  | inactive: -1.36%
13 | COc1ccc(-c2nnc3ccc(SCC(=O)Nc4cc(C)on4)nn23)cc1 |  | inactive: 7.56%
14 | COc1ccc(NC(=O)c2cccc(NC(=O)C(C)C)c2)c([N+](=O)[O-])c1 | inconclusive: 15.8 µM [inhibitor, partial curve] | 
15 | COc1ccc(NC(=O)c2ccccc2NS(=O)(=O)c2ccc(C)cc2)c([N+](=O)[O-])c1 | inconclusive: 20 µM [inhibitor, single point] | 
16 | COc1ccc(-c2cc(C(F)(F)F)c(C#N)c(SCC(=O)O)n2)cc1 | inconclusive: 39.8 µM [inhibitor, partial curve] | 
17 | Cc1ccc(Oc2nc(-c3ccccn3)nc3ccccc23)cc1 | inconclusive: 31.6 µM [inhibitor, single point] | 
18 | COc1cccc(C(=O)Nc2nc3c(c(=O)[nH]2)CCCC3)c1 | inconclusive: 44.7 µM [inhibitor, single point] | 
19 | CC(C)NC(=O)CSCc1c(F)cccc1Cl |  | inactive: 1.02%
20 | O=C(Oc1cccc(NC(=O)c2ccccc2Cl)c1)c1ccc([N+](=O)[O-])cc1 | inconclusive: 10 µM [inhibitor, partial curve] | 
21 | COc1cc([C@@H]2c3cc4c(cc3[C@@H](O[C@@H]3O[C@H]5CO[C@@H](C)O[C@@H]5[C@@H](O)[C@H]3O)[C@@H]3COC(=O)[C@@H]23)OCO4)cc(OC)c1O |  | inactive: 4.11%
